{
  "source": "PubChem BioAssay AID902",
  "about": "(National Center for Advancing Translational Sciences (NCATS), 2007)",
  "note": "About 1,900 (1.5%) of roughly 130,000 compounds were called active. Inconclusive results, whose numbers are uncertain, are shown with a selection of clear calls. Calls come from the whole dose curve; as a rule, active = well fitted cell-killing curve with a large enough effect; inconclusive = small, poorly fitted or top-dose-only effect; inactive = no such curve, though single readings can be large or run the other way. A potency beside an inconclusive call is a rough fit, not a confirmed value. % is set by controls: 0 for no effect and ±100 for the full control effect; potency is the fitted concentration of half-maximal effect; tags give direction and shape of the fitted curve.",
  "data": [
    {"experiment": "qHTS Screen for Compounds that Selectively Target Cancer Cells with p53 Mutations: Cytotoxicity of p53ts Cells at the Nonpermissive Temperature; note: nearly all actives have a fitted effect of over 55% in size", "conditions": "H1299-p53A138V viability at 39C, ATP luminescence, 24 h; activity change, negative = cell killing: at 46.1 µM (top of the series)", "values": [
      {"smiles": "O=C(Nc1nc2ccc(Cl)cc2s1)c1cc(=O)c2ccccc2o1", "Potency": "inconclusive: 20 µM [cytotoxic, partial curve, poor fit]"},
      {"smiles": "Cc1ccsc1C(=O)OCC(=O)Nc1sccc1C(N)=O", "Potency": "inconclusive: 12.6 µM [cytotoxic, single point]"},
      {"smiles": "O=C(O)c1cccc(N=Nc2c(S(=O)(=O)O)ccc3c2C(=O)c2ccccc2C3=O)c1O", "activity change, negative = cell killing": "inactive: 6.41% [at 9.22 µM]"},
      {"smiles": "O=C(NCc1cccnc1)C(=O)NCC(c1cccnc1)N1CCN(c2ccc(F)cc2)CC1", "note": "(configuration not stated)", "Potency": "inconclusive: 10 µM [cytotoxic, partial curve]"},
      {"smiles": "N#Cc1nc(COc2cccc(Cl)c2)oc1NCCc1ccccc1", "Potency": "inconclusive: 12.6 µM [cytotoxic, single point]"},
      {"smiles": "CCc1ccc(-c2cn3c(n2)sc2cc(C(=O)NCCC4=CCCCC4)ccc23)cc1", "Potency": "inactive"},
      {"smiles": "CCOC(=O)c1ccc(NC(=O)CSc2cn(CC(=O)N3CCCC3)c3ccccc23)cc1", "Potency": "inactive"},
      {"smiles": "COC(=O)c1ccc2c(c1)N(CC(=O)Nc1ccc(OC)c(Cl)c1)C(=O)c1ccccc1S2", "Potency": "inconclusive: 2.51 µM [cytotoxic, single point]"},
      {"smiles": "O=C(CCS(=O)(=O)c1nc(-c2cccs2)cc(C(F)(F)F)n1)Nc1cc(Br)ccc1O", "Potency": "active: 7.94 µM"},
      {"smiles": "O=C(CSc1nnc(-c2ccc(Br)cc2)o1)Nc1cccc2ccccc12", "Potency": "inactive"},
      {"smiles": "CC(=O)c1ccc(N2CCN(C(=O)CCC(=O)Nc3ccc4nc(N5CCCCC5)cc(C)c4c3)CC2)cc1", "Potency": "inconclusive: 15.8 µM [cytotoxic, partial curve]"},
      {"smiles": "COc1cccc(NC(=O)c2ccc(CN3CCOCC3)cc2)c1", "Potency": "active: 10 µM"},
      {"smiles": "COc1ccccc1NC(=O)CSc1nnc(NC(=O)Nc2ccc(C)cc2)s1", "Potency": "inconclusive: 10 µM [cytotoxic, partial curve]"},
      {"smiles": "CCOC(=O)c1ccc(NC(=O)c2nsc3ccccc23)cc1", "Potency": "active: 12.6 µM"},
      {"smiles": "Cc1ccc(-c2cnc(NCc3c(F)cccc3Cl)n2C)cc1", "Potency": "inconclusive: 31.6 µM [cytotoxic, single point]"},
      {"smiles": "CNc1nnc(-c2cc3ccccc3oc2=O)s1", "Potency": "inconclusive: 15.8 µM [cytotoxic, partial curve]"},
      {"smiles": "CCCN(C(=O)Cn1cnc2sc(C)c(S(=O)(=O)N3CCN(c4ncccn4)CC3)c2c1=O)c1cccc(C)c1", "Potency": "inactive"},
      {"smiles": "Cn1c(=O)c2c(nc(SCC(=O)Nc3ccc(F)cc3)n2Cc2ccc(Cl)cc2)n(C)c1=O", "Potency": "inconclusive: 15.8 µM [cytotoxic, single point]"},
      {"smiles": "CCN(CC)S(=O)(=O)c1ccc(NC(=O)[C@H](CCSC)N2Cc3ccccc3C2=O)cc1", "Potency": "inconclusive: 2 µM [cytotoxic, partial curve]"},
      {"smiles": "COc1ccccc1-c1cc(C(F)(F)F)nc(S(=O)(=O)CCCC(=O)NC(C)C)n1", "Potency": "inconclusive: 31.6 µM [cytotoxic, single point]"},
      {"smiles": "CC[N+](CC)(CC)CCOc1ccc(/C=C\\c2ccccc2)cc1", "Potency": "inconclusive: 39.8 µM [cytotoxic, single point]"},
      {"smiles": "O=C(Nc1ccc(F)cc1)c1ccc(S(=O)(=O)NCC2CCCO2)cc1", "note": "(configuration not stated)", "Potency": "inactive"},
      {"smiles": "Cc1cc2nc(-c3cccc(NC(=O)COc4ccc(C(C)C)cc4)c3)oc2cc1C", "Potency": "inconclusive: 2.51 µM [cytotoxic, full curve]"},
      {"smiles": "CCOC(=O)OCC1OC(C#Cc2ccccc2)C=CC1OC(=O)OCC", "note": "(configuration not stated)", "activity change, negative = cell killing": "inactive: -12.9% [at 9.22 µM]"},
      {"smiles": "Cc1nc(-c2ccc(S(=O)(=O)Nc3ccc(OC(F)(F)F)cc3)cc2)co1", "Potency": "inconclusive: 0.0398 µM [cytotoxic, partial curve]"},
      {"smiles": "Fc1ccc(C(c2nnc(-c3ccccc3)o2)N2CCN(c3ccccc3)CC2)c(Cl)c1", "note": "(configuration not stated)", "Potency": "inactive"},
      {"smiles": "Cc1ccc(C)c(C(=N)c2ccccc2Cc2ccccc2)c1", "activity change, negative = cell killing": "inactive: -8.72% [at 9.22 µM]"},
      {"smiles": "Cc1ccc(-c2nc3sc(CCNC(=O)c4ccco4)c(C)n3n2)cc1", "Potency": "inconclusive: 7.94 µM [cytotoxic, partial curve, poor fit]"},
      {"smiles": "Cc1ccc(-c2nc(CCNC(=O)C(=O)Nc3ccc(F)cc3F)cs2)cc1", "Potency": "inconclusive: 0.0158 µM [cytotoxic, full curve]"},
      {"smiles": "O=C(NCc1cccs1)c1cc2c(s1)CCCC2", "Potency": "inconclusive: 10 µM [cytotoxic, partial curve]"},
      {"smiles": "Cc1ccc(CSc2nc3ccncc3n2Cc2nc(-c3ccc(Cl)cc3)oc2C)cc1", "Potency": "inconclusive: 0.02 µM [cytotoxic, full curve]"},
      {"smiles": "CCOc1ccc(C2=C(C(=O)CC)Sc3nncn3N2C(=O)CC)cc1", "Potency": "inconclusive: 6.31 µM [cytotoxic, full curve]"},
      {"smiles": "COC(=O)c1c(-c2ccc(Cl)cc2)noc1N1CCN(c2cccc(C)c2C)CC1", "Potency": "inconclusive: 3.16 µM [cytotoxic, full curve, poor fit]"},
      {"smiles": "CCOc1ccc(-c2n[nH]c(C)c2-c2ccccc2OC)c(O)c1", "Potency": "inconclusive: 15.8 µM [cytotoxic, single point]"},
      {"smiles": "CCOC(=O)C(C(=O)OCC)c1cc(Br)c2noc3c2c1C(=O)c1ccccc1-3", "Potency": "inconclusive: 31.6 µM [cytotoxic, single point]"},
      {"smiles": "Cn1c(=O)c(C(=O)COC(=O)c2cc(-c3ccccc3)nc3ccccc23)c(N)n(Cc2ccccc2)c1=O", "Potency": "inactive"},
      {"smiles": "COc1ccc(NC(=O)CSc2nc(-c3ccc(OC)c(OC)c3)[nH]c2-c2ccc(C)cc2)cc1", "Potency": "inconclusive: 10 µM [cytotoxic, partial curve]"},
      {"smiles": "COc1ccccc1CN(Cc1ccco1)c1cnc(S(C)(=O)=O)nc1C(=O)Nc1ccccc1Cl", "Potency": "inactive"},
      {"smiles": "CCOc1ccc2nc(NC(=O)c3ccoc3C)sc2c1", "Potency": "inconclusive: 7.94 µM [cytotoxic, partial curve]"},
      {"smiles": "Cc1ccc(NC(=O)CSc2nccn2Cc2ccc3c(c2)OCO3)c(C)c1", "Potency": "inconclusive: 15.8 µM [cytotoxic, partial curve, poor fit]"},
      {"smiles": "COCCn1c(=NC(=O)c2ccc3c(c2)OCCO3)sc2cc(NC(C)=O)ccc21", "Potency": "inconclusive: 0.0794 µM [cytotoxic, full curve]"},
      {"smiles": "COc1ccc(/C=C/C(=O)c2cccs2)c(OC)c1", "Potency": "active: 5.01 µM"},
      {"smiles": "Cc1ccc(SCCC(=O)NCC2CCCO2)cc1", "note": "(configuration not stated)", "Potency": "inactive"},
      {"smiles": "CCNc1ncc2nc(-c3ccc(Cl)cc3)c(=O)n(-c3ccc(OC)cc3)c2n1", "Potency": "inactive"},
      {"smiles": "O=C(NCCN1CCCCC1)c1ccc(Cn2c(SCc3ccc(F)cc3)nc3cccnc32)cc1", "Potency": "active: 7.94 µM"},
      {"smiles": "Cc1nnc(NC(=O)c2ccc3c(c2)C(=O)N(CC2CCCO2)C3=O)s1", "note": "(configuration not stated)", "Potency": "inactive"},
      {"smiles": "COc1ccc(-c2nc(SCC(=O)Nc3cccc(C(C)=O)c3)n[nH]2)cc1", "Potency": "active: 31.6 µM"},
      {"smiles": "COc1ccccc1CNC(=O)CCCn1c(=O)c2cccn2c2ccccc21", "Potency": "inconclusive: 12.6 µM [cytotoxic, partial curve]"},
      {"smiles": "Cc1ccc(C)c(NC(=O)Cn2nnc(C(=O)NCc3ccco3)c2N)c1", "Potency": "inconclusive: 1.26 µM [cytotoxic, single point]"},
      {"smiles": "COc1cccc2oc(-c3ccccc3)cc(=O)c12", "Potency": "active: 7.94 µM"},
      {"smiles": "COc1ccc2c(c1)OC/C(=C/c1ccc(OC)c(OC)c1)C2=O", "Potency": "inconclusive: 25.1 µM [cytotoxic, single point]"},
      {"smiles": "CN(C)c1ccccc1C(=O)c1ccccc1N(C)C", "Potency": "inconclusive: 15.8 µM [cytotoxic, single point]"},
      {"smiles": "CN(Cc1ccccc1)C(=O)c1cc2c(s1)-c1ccc(Cl)cc1SC2", "Potency": "inconclusive: 12.6 µM [cytotoxic, single point]"},
      {"smiles": "Cc1ccc(NC(=O)CCc2c(C)nn(-c3ccc(N4CCOCC4)nn3)c2C)cc1F", "Potency": "inconclusive: 5.01 µM [cytotoxic, partial curve]"},
      {"smiles": "Cc1ccc(-n2ncc3c(N(CCO)Cc4ccccc4)ncnc32)cc1", "Potency": "inconclusive: 12.6 µM [cytotoxic, partial curve]"},
      {"smiles": "COC(=O)c1c(SCC(=O)Nc2ccccc2OC)[nH]c2ccccc2c1=O", "Potency": "inconclusive: 20 µM [cytotoxic, partial curve]"},
      {"smiles": "O=C(/C=C/c1ccco1)Nc1ccc(Cl)c(-c2nc3cc(Cl)ccc3o2)c1", "Potency": "inconclusive: 20 µM [cytotoxic, single point]"},
      {"smiles": "Cc1ccc(NC(=O)Cn2cc(S(=O)(=O)NC(C)C)c(S(=O)(=O)NC(C)C)c2)cc1Cl", "Potency": "inconclusive: 10 µM [cytotoxic, partial curve]"},
      {"smiles": "O=C(CSc1nc2c(oc3ccccc32)c(=O)[nH]1)Nc1cccc(Cl)c1", "Potency": "active: 7.94 µM"},
      {"smiles": "CN(C)c1cccc(C(=O)Nc2ccc(-c3nc4ccccc4s3)cc2)c1", "Potency": "inconclusive: 10 µM [cytotoxic, partial curve]"},
      {"smiles": "COc1ccc(NC(=O)c2cc(-c3cc(C)cc(C)c3O)n[nH]2)cc1Cl", "Potency": "inconclusive: 15.8 µM [cytotoxic, single point]"},
      {"smiles": "CCOC(=O)c1cccc(Nc2cc(C)nc(C)n2)c1", "Potency": "inconclusive: 12.6 µM [cytotoxic, single point]"},
      {"smiles": "CCOCCCn1c(=N)c(C(=O)NC2CCCC2)cc2c(=O)n3cccc(C)c3nc21", "Potency": "inactive"},
      {"smiles": "Cc1cccc(-n2ncc3c(Nc4c(C)cc(C)cc4C)ncnc32)c1", "Potency": "inactive"},
      {"smiles": "CC1(C)C=Cc2c(cc3occ(-c4ccc5c(c4)OCO5)c(=O)c3c2O)O1", "Potency": "inconclusive: 10 µM [cytotoxic, partial curve]"},
      {"smiles": "CCn1c(SCC(=O)c2ccc3c(c2)OCCO3)nnc1-c1ccco1", "Potency": "inconclusive: 15.8 µM [cytotoxic, single point]"},
      {"smiles": "Cc1ccc(S(=O)(=O)Nc2ccc3c(c2)c(C(=O)OC(C)C)c(C)n3S(=O)(=O)c2ccc(C)cc2)cc1", "Potency": "inactive"}
    ]}
  ]
}
